According to article PMC4336329 (PLoS ONE, 2015):
Among all 310,000 compounds or so, about 14,000 (4.5%) showed an effect of 50% or more. Effects have a minus sign here. The list shows a part of the results.

What follows are molecules tested against human ether-à-go-go-related gene (hERG) potassium channel (human, UniProt Q12809) (assay: primary screen, population patch clamp on CHO cells stably expressing hERG).
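Note: peak tail current of the secondary pulse compared with the same well before compound.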

Chain of human ether-à-go-go-related gene (hERG) potassium channel (Q12809 whole entry, looked up): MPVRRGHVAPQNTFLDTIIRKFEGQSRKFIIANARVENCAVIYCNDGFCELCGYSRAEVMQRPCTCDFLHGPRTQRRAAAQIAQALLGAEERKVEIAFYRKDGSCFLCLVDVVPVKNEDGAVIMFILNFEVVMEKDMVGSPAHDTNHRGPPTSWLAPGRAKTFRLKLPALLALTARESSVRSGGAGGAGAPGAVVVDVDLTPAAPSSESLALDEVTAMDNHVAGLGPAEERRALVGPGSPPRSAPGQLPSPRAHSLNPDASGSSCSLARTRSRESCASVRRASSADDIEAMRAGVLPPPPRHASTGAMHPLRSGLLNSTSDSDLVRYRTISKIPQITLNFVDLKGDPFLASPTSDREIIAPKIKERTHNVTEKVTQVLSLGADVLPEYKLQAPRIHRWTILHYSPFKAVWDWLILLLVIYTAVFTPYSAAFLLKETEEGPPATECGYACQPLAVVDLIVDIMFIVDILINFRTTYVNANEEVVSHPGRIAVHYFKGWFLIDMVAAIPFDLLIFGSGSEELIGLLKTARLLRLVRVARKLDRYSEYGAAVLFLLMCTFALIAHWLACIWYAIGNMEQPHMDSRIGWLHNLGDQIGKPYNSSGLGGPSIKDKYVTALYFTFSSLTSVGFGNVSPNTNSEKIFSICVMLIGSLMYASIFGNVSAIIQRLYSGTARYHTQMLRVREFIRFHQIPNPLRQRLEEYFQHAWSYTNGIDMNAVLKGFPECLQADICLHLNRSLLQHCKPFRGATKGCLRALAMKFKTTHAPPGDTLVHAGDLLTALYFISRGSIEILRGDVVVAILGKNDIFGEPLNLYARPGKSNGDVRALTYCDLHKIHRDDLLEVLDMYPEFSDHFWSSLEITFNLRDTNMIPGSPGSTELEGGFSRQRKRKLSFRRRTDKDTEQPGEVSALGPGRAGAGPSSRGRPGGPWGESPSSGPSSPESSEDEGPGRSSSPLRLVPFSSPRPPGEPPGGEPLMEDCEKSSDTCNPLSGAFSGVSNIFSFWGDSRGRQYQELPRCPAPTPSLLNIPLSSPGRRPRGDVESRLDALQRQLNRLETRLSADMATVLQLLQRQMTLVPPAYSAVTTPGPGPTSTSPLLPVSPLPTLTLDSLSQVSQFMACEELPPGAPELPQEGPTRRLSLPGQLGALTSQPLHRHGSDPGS

Row | Structure (SMILES) | hERG current change (%, negative = inhibition) at 10uM [%]
1 | O=C(CSc1nnnn1C1CCCC1)Nc1ccccc1F | -25.7
2 | CCOc1ncccc1C(=O)OCC(=O)c1c(N)n(C)c(=O)n(C)c1=O | -9
3 | CSc1ccccc1C(=O)NCC1CCCO1 (stereo not drawn) | -11.8
4 | O=C(Nc1ccc(Cl)cc1)ON=C1CCCC1 | 2.62
5 | CCCCCSc1nc(O)cc(=O)[nH]1 | 10.7
6 | CCCN1C(=O)C(NC(C)=O)c2ccccc21 (stereo not drawn) | 0.495
7 | COc1cc(/C=C/C(=O)OCc2cn3cc(Cl)ccc3n2)ccc1O | -5.17
8 | CC1(C)CC(=O)C(C=NC2CCCCC2)=C(O)C1 | -10.2
9 | CCCOC(=O)N[C@@H]1C(=O)N2C(C(=O)OCCC)=C(C)CS[C@H]12 | -2.92
10 | O=C(N/N=C/c1c(O)n(-c2ccccc2Cl)c(=O)c2ccccc12)C1COc2ccccc2O1 (stereo not drawn) | 25.6
11 | COc1ccc(CC(=O)Oc2ccc(C)cc2C)cc1 | -2.18
12 | CCOc1cc(/C=N/NS(=O)(=O)c2ccccc2)ccc1OS(=O)(=O)c1ccc(C)cc1 | 2.1
13 | CCOC(=O)N1CCC(NC(=O)c2cccc3c2C(=O)N(CCOC)C3)CC1 | -1.34
14 | O=C(/C=C/c1ccccc1)C1C(=O)c2ccccc2C1=O | -0.201
15 | COc1ccc(N/N=C(\C#N)C(N)=O)cc1 | 18
16 | CCNC(=S)N1CCN(S(=O)(=O)c2ccc(C)cc2)CC1 | 5.89
17 | O=C1c2ccccc2C(=O)C1Cc1cccc2ccccc12 | -17.8
18 | Cc1ccc(-c2nc3ncccc3o2)cc1NC(=O)c1ccccc1 | -0.0328
19 | CN1c2ccccc2C(=O)NC1c1ccc(Cl)cc1 (stereo not drawn) | 10.8
20 | Cc1cc(NCC(c2ccccc2)c2ccccc2)n2ncnc2n1 | -40.7
21 | Cc1c(C(=O)Nc2ccc3c(c2)OCCO3)sc2ncnc(N3CCCCC3C)c12 (stereo not drawn) | 11.6
22 | O=C(c1ccc(S(=O)(=O)Nc2cccc(C(F)(F)F)c2)cc1)N1CCOCC1 | 16.8
23 | Cc1cccc(NC(=O)CC2C(=O)NCCN2C(=O)Nc2ccc(Cl)cc2)c1 (stereo not drawn) | 12

Row | Structure (SMILES) | hERG current change (%, negative = inhibition) at 10uM [%]
24 | Cc1nn(-c2ccccc2C(F)(F)F)c(=O)c2noc(C)c12 | 4.39
25 | CCN(CC(=O)Nc1ccccc1C(=O)OC)S(=O)(=O)c1ccc(OC)cc1 | -41.7
26 | CCOC(=O)N1CCN(CC(O)c2ccccc2)CC1.O=C(O)C(=O)O (stereo not drawn) | 2.82
27 | Cn1c(Cc2ccccc2)nnc1SCC(=O)Nc1ccc2c(c1)OCCO2 | -2.8
28 | Nc1ccccc1Sc1cc(Cl)nnc1Cl | 3.55
29 | Cc1ccc(S(=O)(=O)N(C)CC(=O)O/N=C(\N)c2ccccn2)cc1 | 0.257
30 | CCCCn1c(N)c(N(CC(C)C)C(=O)CN(C)Cc2cccc(OC)c2)c(=O)[nH]c1=O | -3.67
31 | Cc1ccc(-c2cc(=O)[nH]c(NCc3ccccc3)n2)cc1 | 14.5
32 | COCCCn1c(SCC(=O)Nc2ccc(NC(C)=O)cc2)nc2sc3c(c2c1=O)CCC3 | 19.5
33 | Cc1cccc(NC(=S)N(C)C2(c3ccccc3Cl)CCCCC2=O)c1 (stereo not drawn) | 2.34
34 | COc1ccc(C2CC(c3ccc(Cl)c(Cl)c3)Nc3nc(N)nn32)cc1 (stereo not drawn) | -18.6
35 | CS(=O)(=O)N(CC(=O)NCc1ccc2c(c1)OCO2)C1CCCCC1 | -3.33
36 | Cc1cc(NC(=O)c2ccc(C)c([N+](=O)[O-])c2)no1 | 31.2
37 | N=C1/C(=C\c2ccc(-c3cc(Cl)cc(Cl)c3)o2)C(=O)N=C2SC=C(c3ccccc3)N12 | -26.1
38 | CCCn1c(CCC(=O)O)nc2cc(S(=O)(=O)N(CC)CC)ccc21 | -1.79
39 | COC(=O)c1ccc(N2CCC(c3cc(-c4ccc(OC)cc4)n[nH]3)CC2)c([N+](=O)[O-])c1 | 25.2
40 | CSc1ncccc1C(=O)N1CCCC(CCC(=O)NCc2ccc(F)c(F)c2)C1 (stereo not drawn) | 6.61
41 | O=C(NCc1cccs1)C(=O)NCC1OCCCN1S(=O)(=O)c1cc(F)ccc1F (stereo not drawn) | -6.05
42 | CCOC(=O)c1ccc(-c2ccc(C=O)o2)cc1 | 16.6
43 | COc1ccc(C)cc1-n1nnnc1SCc1csc(C)n1 | -16.2
44 | CC1(C)Cc2nc3sc4c(SCC(=O)NCc5ccco5)ncnc4c3cc2CO1 | 5.23
45 | O=C(Nc1nc(-c2cc3ccccc3oc2=O)cs1)c1ccco1 | 9.4
46 | Cc1cccc(N(CC(=O)NC(C)(C)C)C(=O)CS(=O)CC(=O)Nc2ccc3c(c2)OCO3)c1 (stereo not drawn) | 20

Row | Structure (SMILES) | hERG current change (%, negative = inhibition) at 10uM [%]
47 | O=C(Nc1ccc(NS(=O)(=O)c2ccccc2)cc1)c1ccccc1 | 15.7
48 | CN(C)c1ccc(C=Nc2ccccc2)cc1 | 8.33
49 | O=C1[C@H](O)[C@@H](O)C(=O)N1Cc1ccccc1 | 20.6
50 | Cn1cccc1C(=O)C(=O)Nc1ccccc1C(F)(F)F | 20.8
51 | COC(=O)c1ccc(C(=O)N2CCCC(Nc3ccc(C(C)C)cc3)C2)cc1 (stereo not drawn) | -6.85
52 | COc1ccc(C(c2nnnn2CC2CCCO2)N2CCN(c3ccc(F)cc3)CC2)cc1.Cl (stereo not drawn) | -44.2
53 | O=C(CSc1nc2ncc(Br)cc2[nH]1)Nc1ccc2c(c1)OCO2 | 15.7
54 | O=C(COc1ccc(F)cc1)N(CC1=CCS(=O)(=O)C1)c1ccccc1 | -11.9
55 | COC(=O)C1=C(C)NC(=O)NC1c1ccc2ccccc2c1 (stereo not drawn) | 13.8
56 | CCOC(=O)C1(Cc2ccccc2C(F)(F)F)CCN(C2CCN(C(C)C)CC2)CC1 | -36.6
57 | CCOC(=O)c1cc(-c2ccc(C)o2)n[nH]1 | 13.8
58 | COc1ccc(C(=O)OC(C)CN2CCN(C)CC2)cc1.Cl (stereo not drawn) | 5.05
59 | COc1ccc(C(=O)NCCCc2nc3ccccc3n2Cc2ccccc2C)cc1OC | -55.4
60 | CCOc1ccc(CCNC(=O)c2cc([N+](=O)[O-])ccc2N2CCOCC2)cc1OCC | -37.3
61 | COc1ccc(-n2c(=O)c3ccccc3n(Cc3cccc(C)c3)c2=O)cc1OC | -0.137
62 | CCN1C(=NCCCCO)N[C@@H](c2cccc(C(F)(F)F)c2)C(C(=O)OC)=C1C | 5.89
63 | CC1=CN2CC(O)CN=C2C=C1.Cl (stereo not drawn) | -1.57
64 | Cc1sc2ncnc(NCC3CCCO3)c2c1C.Cl (stereo not drawn) | -1.4
65 | CC12CCC(C(=O)N(c3ccccc3Cl)C1=O)C2(C)C (stereo not drawn) | 5.93
66 | CCN(CC(=O)Nc1c(F)cccc1F)C(=O)/C=C/c1c(C)nn(-c2ccc(F)cc2)c1C | 5.39
67 | O=C(O)CC(Cc1ccccc1)C(=O)Nc1ccc([N+](=O)[O-])cc1 (stereo not drawn) | -11
68 | Cn1nc(C(F)(F)F)c(-c2ccc(F)cc2)c1NC(=O)Nc1ccc(F)cc1 | 8.29
69 | O=C(Nc1nc2c(Cl)cccc2s1)C1CC1 | 5.69

Row | Structure (SMILES) | hERG current change (%, negative = inhibition) at 10uM [%]
70 | COc1ccccc1C(=O)NCC(=O)NC1CCCc2ccccc21 (stereo not drawn) | 6.11
71 | Cc1ccc(/C=C(\NC(=O)c2ccc(C)cc2)C(=O)NCCCn2ccnc2)cc1 | -84.9
72 | CN(C)C(=S)c1ccccc1 | 4.5
73 | CCn1c(/C=C/c2cc(Br)ccc2O)nc2ccccc2c1=O | 17.9
74 | Cc1no[n+]([O-])c1COc1ccc(/C=N/n2nnnc2N)cc1 | 4.03
75 | CC(C)OP(=O)(c1ccc(N(C)C)cc1)C(O)c1c(Cl)cccc1Cl (stereo not drawn) | 2.64
76 | COc1ccc(CC(=O)NNC(=O)CCC(=O)Nc2cc(C)ccc2C)cc1 | 10.4
77 | COc1ccc(CN(C(=O)CCC(=O)Nc2cc(C)on2)C(C(=O)NC(C)(C)C)c2cccc(OC)c2OC)cc1 (stereo not drawn) | -0.139
78 | Cc1cc2c(c(=O)o1)C(CC(C)C)C(C#N)=C(N)O2 (stereo not drawn) | 5.19
79 | COC(=O)COc1cccc(NC(=O)C(c2ccccc2)c2ccccc2)c1 | 8.99
80 | CCC(=O)Nc1cccc(C2=NOC3(C2)C[C@H](C(N)=O)N(C(=O)c2ccc(Cl)cc2)C3)c1 (stereo partly drawn) | 2.02
81 | Cc1ccc(C(=O)NCC2CCCO2)o1 (stereo not drawn) | 7.49
82 | Cc1ccc(NP(=O)(c2ccccc2)c2nc3ccccc3s2)cc1 (stereo not drawn) | 3.27
83 | COc1ccc(NC(=S)NCCc2c[nH]c3ccccc23)c(OC)c1 | 4.23
84 | Cc1cc(C)n2nc(SCC(=O)N(C)C3CCCCC3)nc2n1 | -15.6
85 | Cl.N=C(N)c1ccc(N)cc1 | 17.9
86 | Cc1cc(S(=O)(=O)NC(C)C)ccc1OCC(=O)NCc1ccccc1 | -2.28
87 | O=C(O)c1cc(-c2ccccc2)nc2ccccc12 | 15.6
88 | COc1ccc(/C=C/c2noc(-c3ccccc3O)n2)cc1 | 5.94
89 | CCn1c2ccccc2c2cc(/C=N/n3cn[nH]c3=S)ccc21 | 2.82
90 | O=C(Nc1nc2ccc(F)cc2s1)c1ccc(N2CCCC2=O)cc1 | 11.9
